# The supplement of paper PMC7826260
# The other results are listed elsewhere or left out. Cleavage of a single-stranded DNA pool by Rep nickase domains was read by sequencing at 3 µM enzyme and 37 °C for 1 h; the strands have 90 letters, of which the middle is given. A value is the log2 ratio of uncut reads to the pool without enzyme; strong cutting gives strongly negative numbers. There is no active / inactive call. Counts are relative to all reads, so uncut sequences can rise above 0 when many others are cut.
# Experiments:
# Test in all cases: uncleaved DNA left, log2 of reads against the no-enzyme library (log2 ratio); higher = less cleavage (more negative = more Rep cleavage of the k-mer); sequences stand for … in CTCGTCCG…ACCGGAGA
# [1] = tested on: T1, Rep nickase domain of Muscovy duck circovirus
# T1 sequence (Rep 1-111, printed without the tag): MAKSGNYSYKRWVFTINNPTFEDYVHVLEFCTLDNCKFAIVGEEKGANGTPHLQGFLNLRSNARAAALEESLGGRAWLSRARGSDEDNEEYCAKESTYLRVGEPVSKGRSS
# Method: (§1)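 A pool of 90-nt single-stranded DNAs with seven random bases just before the constant AC of the nick site (name = the seven bases) was cut by 3 µM recombinant His6-SUMO-tagged Rep nickase domain (300 nM DNA, 50 mM HEPES pH 8.0, 50 mM NaCl, 1 mM MnCl2, 1 h, 37 °C, three replicates). Uncut DNA was amplified and sequenced.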
# [2] = tested on: T2, Rep nickase domain of banana bunchy top virus
# T2 sequence (Rep 1-94, printed without the tag): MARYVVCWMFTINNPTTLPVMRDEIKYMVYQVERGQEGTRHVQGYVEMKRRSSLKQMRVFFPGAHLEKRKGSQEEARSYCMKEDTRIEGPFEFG
# Method: as §1
# [3] = tested on: T3, Rep nickase domain of cabbage leaf curl virus
# T3 sequence (Rep 1-116, printed without the tag): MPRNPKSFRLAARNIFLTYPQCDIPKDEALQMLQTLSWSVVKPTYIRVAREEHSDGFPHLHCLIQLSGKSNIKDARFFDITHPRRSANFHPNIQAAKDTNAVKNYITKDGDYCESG
# Method: as §1
# [4] = tested on: T4, Rep nickase domain of chickpea chlorotic dwarf virus
# T4 sequence (Rep 1-124, printed without the tag): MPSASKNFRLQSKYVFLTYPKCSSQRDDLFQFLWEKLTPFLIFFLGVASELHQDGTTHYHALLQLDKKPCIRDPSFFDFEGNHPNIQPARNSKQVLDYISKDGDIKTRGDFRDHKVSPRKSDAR
# Method: as §1
# [5] = tested on: T5, Rep nickase domain of faba bean necrotic yellows virus
# T5 sequence (Rep 1-98, printed without the tag): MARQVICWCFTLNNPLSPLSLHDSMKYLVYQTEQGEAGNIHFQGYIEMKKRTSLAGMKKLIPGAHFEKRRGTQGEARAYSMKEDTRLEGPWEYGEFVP
# Method: as §1
# [6] = tested on: T6, Rep nickase domain of maize striate mosaic virus
# T6 sequence (Rep 1-117, printed without the tag): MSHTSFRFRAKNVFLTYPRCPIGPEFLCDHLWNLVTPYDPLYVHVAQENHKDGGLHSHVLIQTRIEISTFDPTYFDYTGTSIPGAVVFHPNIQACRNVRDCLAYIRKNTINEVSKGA
# Method: as §1
# [7] = tested on: T7, Rep nickase domain of porcine circovirus 2
# T7 sequence (Rep 2-116, printed without the tag): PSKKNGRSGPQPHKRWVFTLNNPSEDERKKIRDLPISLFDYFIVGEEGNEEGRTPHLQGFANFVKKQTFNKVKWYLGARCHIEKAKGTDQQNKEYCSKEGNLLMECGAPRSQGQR
# Method: as §1
# [8] = tested on: T8, Rep nickase domain of tomato yellow leaf curl virus
# T8 sequence (Rep 1-136, printed without the tag): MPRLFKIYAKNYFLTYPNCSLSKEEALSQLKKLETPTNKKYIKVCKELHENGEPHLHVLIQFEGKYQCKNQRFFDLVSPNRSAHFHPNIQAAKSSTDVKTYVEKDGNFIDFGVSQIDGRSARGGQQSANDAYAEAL
# Method: as §1
# [9] = tested on: T9, Rep nickase domain of wheat dwarf virus
# T9 sequence (Rep 1-137, printed without the tag): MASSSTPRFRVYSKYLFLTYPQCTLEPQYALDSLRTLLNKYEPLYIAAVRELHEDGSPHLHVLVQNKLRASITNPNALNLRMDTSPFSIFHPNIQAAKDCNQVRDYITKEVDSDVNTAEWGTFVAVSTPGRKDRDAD
# Method: as §1
Sequence,uncleaved DNA left (log2) [1],uncleaved DNA left (log2) [2],uncleaved DNA left (log2) [3],uncleaved DNA left (log2) [4],uncleaved DNA left (log2) [5],uncleaved DNA left (log2) [6],uncleaved DNA left (log2) [7],uncleaved DNA left (log2) [8],uncleaved DNA left (log2) [9]
TGTCCGG,0.0374,0.129,0.547,1.35,0.0523,1.88,0.132,0.0739,0.12
ATCACGT,0.00774,-0.0442,-0.172,-0.504,-0.072,-0.827,0.0496,-0.0724,-0.0864
GGACCGA,0.121,0.146,0.693,1.55,0.0549,1.86,0.214,0.0618,0.241
ATGGCTG,-0.00402,0.0492,0.299,1.22,0.0279,1.59,0.111,-0.217,-0.0239
ATTGGCG,0.0975,-0.0469,-0.15,1.3,0.0628,0.792,0.133,0.0541,-0.103
CCTCATG,-0.116,-0.347,-0.494,-0.327,-0.0703,-0.887,-0.000847,-0.203,-0.091
ACGTAGC,0.115,0.0502,-0.537,-0.453,0.00228,-1.02,0.115,0.0257,-0.11
CATGCAA,-0.14,-0.0645,-0.646,-0.69,-0.0336,-1.27,-0.00698,0.0931,0.0628
CGTGTTT,0.195,0.212,0.274,-0.866,0.222,0.186,-0.34,0.266,0.148
AGGCACT,0.076,0.0819,0.502,0.728,0.0242,1.49,0.148,0.061,0.077
AAATAAG,-0.105,-0.00968,-0.808,0.234,0.208,-0.678,0.135,0.0935,-0.127
AGGTGAA,0.0522,0.112,0.295,0.774,-0.0445,1.35,0.00935,-0.0159,-0.0215
AAGAACG,0.0727,0.0668,-0.707,-0.443,0.106,-1.07,0.289,0.125,0.0151
TGATCAT,-0.0238,0.114,0.643,1.13,-0.0217,1.66,0.0492,0.135,0.156
TAACTTA,-0.164,-0.0595,-1.52,-3.2,0.0559,-0.648,-0.178,0.0691,-0.978
AGGGTGT,-0.0233,0.0493,0.177,1.12,-0.0487,1.52,0.0914,-0.027,0.0359
ACGTCGT,-0.0422,-0.0751,-0.567,-0.764,0.0224,-0.922,-0.154,-0.0663,-0.0264
CAGCTGG,0.0474,0.0336,0.255,0.922,0.127,0.824,0.222,-0.105,0.0574
TTTGGCA,0.0869,0.0485,-0.127,-0.589,0.0818,-0.931,-0.00475,-0.0397,0.0875
CGTACAG,0.102,0.0941,-0.186,-0.397,-0.0186,-0.338,0.139,0.0476,0.0626
CCCATCA,-0.0269,0.118,0.394,-0.14,-0.000995,0.0489,0.0446,0.15,0.205
CATCTGA,0.0284,0.0141,-0.0392,0.0428,0.0811,-0.218,-0.0493,-0.00447,0.031
ATAGTGC,-0.0474,0.0219,-0.673,-0.63,-0.00361,-1.36,0.124,0.0272,-0.0393
CATCCTC,0.0423,-0.0406,0.0305,-0.202,0.0173,-0.437,0.0677,-0.0728,0.0429
GGGCAGC,0.0203,0.0576,0.802,1.88,-0.00489,2.21,0.196,0.0147,0.111
GTATGGG,0.124,0.136,-0.116,-0.0616,0.0885,-0.301,0.142,0.119,0.0533
TGCTGCA,-0.034,-0.0332,-0.357,-0.552,0.0618,-0.779,-0.143,-0.0164,-0.0767
AACGTGA,-0.186,-0.1,-0.178,-0.64,-0.0476,-0.694,0.0139,-0.0543,-0.0754
CCGGTGC,0.0407,-0.138,-0.242,-0.292,0.043,-0.486,0.0884,-0.02,-0.041
TCTGCAT,-0.0834,-0.107,-0.255,-0.727,-0.149,-0.945,-0.0797,-0.114,-0.109
